This is one part of the list. At the low end of the ranking the order means little.
Target: AGO2 WT (phosphosite mutant background) S387D + S824A + S828D + S831D + S834A (UniProt Q9UKV8)
Experiment: RNA Bind-n-Seq (nitrocellulose filter binding and sequencing)
Conditions: constant regions annealed to DNA blockers; guide miR-122 5' phosphate; 30 mM Tris pH 8.0, 100 mM potassium acetate, 2 mM magnesium acetate, 0.5 mM TCEP, 0.005% NP-40, 0.01 mg/ml yeast tRNA; 3 nM AGO2-miR-122, 100 nM RNA library …; high values mean tight binding

**Q.** How did the binding signal (fold enrichment over input) turn out when “GAGUUCUACAGUCCGACGAUCCCAACAUAUCCUGCACCUGGAAUUCUCGGGUGCCAA / UGGAGUGUGACAAUGGUGUUUG / GATCGTCGGACTGTAGAACTC / TTGGCACCCGAGAATTCCA” was run?
**A.** 0.0825

**Q.** “GAGUUCUACAGUCCGACGAUCCCAACACAUUCCACACCUGGAAUUCUCGGGUGCCAA / UGGAGUGUGACAAUGGUGUUUG / GATCGTCGGACTGTAGAACTC / TTGGCACCCGAGAATTCCA” was tested. Which binding signal (fold enrichment over input) did it give?
**A.** 0.267

**Q.** How did the binding signal (fold enrichment over input) turn out when “GAGUUCUACAGUCCGACGAUCCCAACAUGUCUCGCACCUGGAAUUCUCGGGUGCCAA / UGGAGUGUGACAAUGGUGUUUG / GATCGTCGGACTGTAGAACTC / TTGGCACCCGAGAATTCCA” was run?
**A.** 0.0783

**Q.** For “GAGUUCUACAGUCCGACGAUCCCAACAUGCCCCGCACCUGGAAUUCUCGGGUGCCAA / UGGAGUGUGACAAUGGUGUUUG / GATCGTCGGACTGTAGAACTC / TTGGCACCCGAGAATTCCA”, which binding signal (fold enrichment over input) is on record?
**A.** 0.0965

**Q.** “GAGUUCUACAGUCCGACGAUCCCAACACGCUCCGCACCUGGAAUUCUCGGGUGCCAA / UGGAGUGUGACAAUGGUGUUUG / GATCGTCGGACTGTAGAACTC / TTGGCACCCGAGAATTCCA” was tested. Which binding signal (fold enrichment over input) did it give?
**A.** 3.15

**Q.** “GAGUUCUACAGUCCGACGAUCCCAACGUACUUCGCACCUGGAAUUCUCGGGUGCCAA / UGGAGUGUGACAAUGGUGUUUG / GATCGTCGGACTGTAGAACTC / TTGGCACCCGAGAATTCCA” was tested. Which binding signal (fold enrichment over input) did it give?
**A.** 0.0866

**Q.** “GAGUUCUACAGUCCGACGAUCCCAACACACCUUACACCUGGAAUUCUCGGGUGCCAA / UGGAGUGUGACAAUGGUGUUUG / GATCGTCGGACTGTAGAACTC / TTGGCACCCGAGAATTCCA” was tested. Which binding signal (fold enrichment over input) did it give?
**A.** 0.164

**Q.** How did the binding signal (fold enrichment over input) turn out when “GAGUUCUACAGUCCGACGAUCCCAACAUGCCUCGCACCUGGAAUUCUCGGGUGCCAA / UGGAGUGUGACAAUGGUGUUUG / GATCGTCGGACTGTAGAACTC / TTGGCACCCGAGAATTCCA” was run?
**A.** 0.0832

**Q.** With “GAGUUCUACAGUCCGACGAUCCCAACGCGCCUUGCACCUGGAAUUCUCGGGUGCCAA / UGGAGUGUGACAAUGGUGUUUG / GATCGTCGGACTGTAGAACTC / TTGGCACCCGAGAATTCCA” as the sequence, how does the binding signal (fold enrichment over input) read?
**A.** 0.101

**Q.** With “GAGUUCUACAGUCCGACGAUCCCAACGCGUCCCGCACCUGGAAUUCUCGGGUGCCAA / UGGAGUGUGACAAUGGUGUUUG / GATCGTCGGACTGTAGAACTC / TTGGCACCCGAGAATTCCA” as the sequence, how does the binding signal (fold enrichment over input) read?
**A.** 0.105

**Q.** For “GAGUUCUACAGUCCGACGAUCCCAACGCGCCCUACACCUGGAAUUCUCGGGUGCCAA / UGGAGUGUGACAAUGGUGUUUG / GATCGTCGGACTGTAGAACTC / TTGGCACCCGAGAATTCCA”, which binding signal (fold enrichment over input) is on record?
**A.** 0.112

**Q.** “GAGUUCUACAGUCCGACGAUCCCAACACAUCCUGCACCUGGAAUUCUCGGGUGCCAA / UGGAGUGUGACAAUGGUGUUUG / GATCGTCGGACTGTAGAACTC / TTGGCACCCGAGAATTCCA” was tested. Which binding signal (fold enrichment over input) did it give?
**A.** 0.144

**Q.** For “GAGUUCUACAGUCCGACGAUCCCAACGCACCCCGCACCUGGAAUUCUCGGGUGCCAA / UGGAGUGUGACAAUGGUGUUUG / GATCGTCGGACTGTAGAACTC / TTGGCACCCGAGAATTCCA”, which binding signal (fold enrichment over input) is on record?
**A.** 0.129

**Q.** “GAGUUCUACAGUCCGACGAUCCCAACGUGCUUCACACCUGGAAUUCUCGGGUGCCAA / UGGAGUGUGACAAUGGUGUUUG / GATCGTCGGACTGTAGAACTC / TTGGCACCCGAGAATTCCA” was tested. Which binding signal (fold enrichment over input) did it give?
**A.** 0.117

**Q.** For “GAGUUCUACAGUCCGACGAUCCCAACGCGUCUUACACCUGGAAUUCUCGGGUGCCAA / UGGAGUGUGACAAUGGUGUUUG / GATCGTCGGACTGTAGAACTC / TTGGCACCCGAGAATTCCA”, which binding signal (fold enrichment over input) is on record?
**A.** 0.118

**Q.** For “GAGUUCUACAGUCCGACGAUCCCAACAUGCUCUGCACCUGGAAUUCUCGGGUGCCAA / UGGAGUGUGACAAUGGUGUUUG / GATCGTCGGACTGTAGAACTC / TTGGCACCCGAGAATTCCA”, which binding signal (fold enrichment over input) is on record?
**A.** 0.0998

**Q.** With “GAGUUCUACAGUCCGACGAUCCCAACACGUUUCACACCUGGAAUUCUCGGGUGCCAA / UGGAGUGUGACAAUGGUGUUUG / GATCGTCGGACTGTAGAACTC / TTGGCACCCGAGAATTCCA” as the sequence, how does the binding signal (fold enrichment over input) read?
**A.** 0.146

**Q.** Which binding signal (fold enrichment over input) does the source give for “GAGUUCUACAGUCCGACGAUCCCAACGCGCUCCACACCUGGAAUUCUCGGGUGCCAA / UGGAGUGUGACAAUGGUGUUUG / GATCGTCGGACTGTAGAACTC / TTGGCACCCGAGAATTCCA” here?
**A.** 1.63

**Q.** “GAGUUCUACAGUCCGACGAUCCCAACGUGUCCCGCACCUGGAAUUCUCGGGUGCCAA / UGGAGUGUGACAAUGGUGUUUG / GATCGTCGGACTGTAGAACTC / TTGGCACCCGAGAATTCCA” was tested. Which binding signal (fold enrichment over input) did it give?
**A.** 0.0896

**Q.** Which binding signal (fold enrichment over input) does the source give for “GAGUUCUACAGUCCGACGAUCCCAACGCACUUCGCACCUGGAAUUCUCGGGUGCCAA / UGGAGUGUGACAAUGGUGUUUG / GATCGTCGGACTGTAGAACTC / TTGGCACCCGAGAATTCCA” here?
**A.** 0.0901

**Q.** For “GAGUUCUACAGUCCGACGAUCCCAACGUGUUUUACACCUGGAAUUCUCGGGUGCCAA / UGGAGUGUGACAAUGGUGUUUG / GATCGTCGGACTGTAGAACTC / TTGGCACCCGAGAATTCCA”, which binding signal (fold enrichment over input) is on record?
**A.** 0.103

**Q.** How did the binding signal (fold enrichment over input) turn out when “GAGUUCUACAGUCCGACGAUCCCAACAUAUUCUGCACCUGGAAUUCUCGGGUGCCAA / UGGAGUGUGACAAUGGUGUUUG / GATCGTCGGACTGTAGAACTC / TTGGCACCCGAGAATTCCA” was run?
**A.** 0.0935

**Q.** How did the binding signal (fold enrichment over input) turn out when “GAGUUCUACAGUCCGACGAUCCCAACGUGCCCUGCACCUGGAAUUCUCGGGUGCCAA / UGGAGUGUGACAAUGGUGUUUG / GATCGTCGGACTGTAGAACTC / TTGGCACCCGAGAATTCCA” was run?
**A.** 0.104

**Q.** Which binding signal (fold enrichment over input) does the source give for “GAGUUCUACAGUCCGACGAUCCCAACAUAUCCCGCACCUGGAAUUCUCGGGUGCCAA / UGGAGUGUGACAAUGGUGUUUG / GATCGTCGGACTGTAGAACTC / TTGGCACCCGAGAATTCCA” here?
**A.** 0.0832

**Q.** “GAGUUCUACAGUCCGACGAUCCCAACGCGUCCUACACCUGGAAUUCUCGGGUGCCAA / UGGAGUGUGACAAUGGUGUUUG / GATCGTCGGACTGTAGAACTC / TTGGCACCCGAGAATTCCA” was tested. Which binding signal (fold enrichment over input) did it give?
**A.** 0.123

**Q.** “GAGUUCUACAGUCCGACGAUCCCAACGUGUCUUGCACCUGGAAUUCUCGGGUGCCAA / UGGAGUGUGACAAUGGUGUUUG / GATCGTCGGACTGTAGAACTC / TTGGCACCCGAGAATTCCA” was tested. Which binding signal (fold enrichment over input) did it give?
**A.** 0.0861

**Q.** How did the binding signal (fold enrichment over input) turn out when “GAGUUCUACAGUCCGACGAUCCCAACGCAUCUUACACCUGGAAUUCUCGGGUGCCAA / UGGAGUGUGACAAUGGUGUUUG / GATCGTCGGACTGTAGAACTC / TTGGCACCCGAGAATTCCA” was run?
**A.** 0.12

**Q.** How did the binding signal (fold enrichment over input) turn out when “GAGUUCUACAGUCCGACGAUCCCAACGCGUUUUACACCUGGAAUUCUCGGGUGCCAA / UGGAGUGUGACAAUGGUGUUUG / GATCGTCGGACTGTAGAACTC / TTGGCACCCGAGAATTCCA” was run?
**A.** 0.107

**Q.** For “GAGUUCUACAGUCCGACGAUCCCAACGUGCCUCGCACCUGGAAUUCUCGGGUGCCAA / UGGAGUGUGACAAUGGUGUUUG / GATCGTCGGACTGTAGAACTC / TTGGCACCCGAGAATTCCA”, which binding signal (fold enrichment over input) is on record?
**A.** 0.107

**Q.** “GAGUUCUACAGUCCGACGAUCCCAACGCAUCCUGCACCUGGAAUUCUCGGGUGCCAA / UGGAGUGUGACAAUGGUGUUUG / GATCGTCGGACTGTAGAACTC / TTGGCACCCGAGAATTCCA” was tested. Which binding signal (fold enrichment over input) did it give?
**A.** 0.0873

**Q.** For “GAGUUCUACAGUCCGACGAUCCCAACGCAUUCCGCACCUGGAAUUCUCGGGUGCCAA / UGGAGUGUGACAAUGGUGUUUG / GATCGTCGGACTGTAGAACTC / TTGGCACCCGAGAATTCCA”, which binding signal (fold enrichment over input) is on record?
**A.** 0.108

**Q.** For “GAGUUCUACAGUCCGACGAUCCCAACACAUUCUACACCUGGAAUUCUCGGGUGCCAA / UGGAGUGUGACAAUGGUGUUUG / GATCGTCGGACTGTAGAACTC / TTGGCACCCGAGAATTCCA”, which binding signal (fold enrichment over input) is on record?
**A.** 0.107

**Q.** Which binding signal (fold enrichment over input) does the source give for “GAGUUCUACAGUCCGACGAUCCCAACAUGCUCCGCACCUGGAAUUCUCGGGUGCCAA / UGGAGUGUGACAAUGGUGUUUG / GATCGTCGGACTGTAGAACTC / TTGGCACCCGAGAATTCCA” here?
**A.** 0.186

**Q.** Which binding signal (fold enrichment over input) does the source give for “GAGUUCUACAGUCCGACGAUCCCAACAUGUUUCACACCUGGAAUUCUCGGGUGCCAA / UGGAGUGUGACAAUGGUGUUUG / GATCGTCGGACTGTAGAACTC / TTGGCACCCGAGAATTCCA” here?
**A.** 0.125

**Q.** With “GAGUUCUACAGUCCGACGAUCCCAACACGUUUCGCACCUGGAAUUCUCGGGUGCCAA / UGGAGUGUGACAAUGGUGUUUG / GATCGTCGGACTGTAGAACTC / TTGGCACCCGAGAATTCCA” as the sequence, how does the binding signal (fold enrichment over input) read?
**A.** 0.0857

**Q.** For “GAGUUCUACAGUCCGACGAUCCCAACACGUUUUGCACCUGGAAUUCUCGGGUGCCAA / UGGAGUGUGACAAUGGUGUUUG / GATCGTCGGACTGTAGAACTC / TTGGCACCCGAGAATTCCA”, which binding signal (fold enrichment over input) is on record?
**A.** 0.0911
